Hit rate of the full screen: of about 420,000 compounds, about 64,000 (15%) were called active. This list was built around the results that the source calls inconclusive (neither active nor inactive); the mix of calls is not that of the screen. Calls come from the whole dose curve; as a rule, active = well fitted inhibition curve with a large enough effect; inconclusive = small, poorly fitted or top-dose-only effect; inactive = flat fitted curve, though single readings scatter. No potency is given beside an inconclusive call; the fits are too rough.
experiment: qHTS for Inhibitors of human tyrosyl-DNA phosphodiesterase 1 (TDP1): qHTS in cells in absence of CPT; settings: DT40 Tdp1-/- hTDP1 cells, no CPT, ATP luminescence, 48 h; activity change, negative = growth inhibition: at 46.2 µM (top of the series) unless noted; note: nearly all actives have a fitted effect of over 55% in size
Method in brief: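 Chicken DT40 Tdp1-/- cells complemented with human TDP1, screened without camptothecin (DMSO vehicle only), 400 cells/well. Compounds pin-transferred, cells incubated at 37 °C for at least 48 hr. Growth read as ATP-dependent luminescence (CellTiter-Glo, 30 min at RT).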
% is set by controls: 0 for no effect and ±100 for the full control effect; potency is the fitted concentration of half-maximal effect; tags give direction and shape of the fitted curve.

Structure (SMILES)	Potency	activity change, negative = growth inhibition
COC(=O)c1ccc(CN(c2ccc(C)cc2)S(=O)(=O)c2ccc3c(c2)OCCO3)o1	active: 16.4 µM	–
COc1ccc(-c2csc(C(NC(C)=O)c3ccccc3)n2)cc1 (stereo not given)	inconclusive [inhibitor, single point]	–
CC1=CC=CC2=N/C(=N\S(=O)(=O)c3ccc(F)cc3F)c3ccccc3CN12	–	inactive: -23.1%
CC(C)(C)c1ccc(OCCNC(=S)Nc2ccccc2)cc1	active: 5.8 µM	–
Cc1ccc(NC(=S)NC(=O)c2ccccc2)cc1NC(=S)NC(=O)c1ccccc1	–	inconclusive: -32.2% [inhibitor]
Cc1cc(/C=C(\C#N)C(=O)NC2CCCCCC2)c(C)[nH]1	–	inconclusive: -33.3% [inhibitor]
CCOC(=O)c1csc(NC(=O)c2cccs2)n1	–	inactive: -19.3%
Cc1cccc(C)c1-n1nnnc1C(c1ccnc2ccccc12)N1CCN(CCN(C)C)CC1 (stereo not given)	inconclusive [inhibitor, single point]	–
Cc1cccc(N2C(=O)CC(Sc3nc(C)c4c(n3)CCCC4)C2=O)c1 (stereo not given)	–	inactive: -14.1%
O=S(=O)(c1ccccc1)N(Cc1cccc(F)c1)c1ccccc1	inconclusive [inhibitor, single point]	–
CC(C)c1ccc(CC(C)C2C3=C(CCCC3=O)OC3=C2C(=O)CCC3)cc1 (stereo not given)	inconclusive [inhibitor, single point]	–
Oc1ccccc1Nc1nc(NCc2ccccc2)c2ccccc2n1	active: 11.6 µM	–
CCOc1cc(/C=N/NC(=O)c2c(-c3ccccc3)noc2C)ccc1O	–	inactive: -7.38%
N/C(=N\O)c1ccc(Oc2ccccc2Cl)c([N+](=O)[O-])c1	–	inactive: 3.34%
O=C(COC(=O)c1ccccc1[N+](=O)[O-])NCCCc1ccccc1	–	inactive: -3.06%
CC(C)OC(=O)C(C)Nc1n[nH]c(=S)[nH]c1=O (stereo not given)	inconclusive [inhibitor, single point]	–
Cc1ccc(-c2ocnc2C(=O)Nc2ccccc2C(=O)N2CCCC2)cc1	inconclusive [inhibitor, single point]	–
Cc1cccc(C)c1NC(=O)N1CCN(c2nc3ccccc3s2)CC1	inconclusive [inhibitor, partial curve]	–
N#Cc1c2ccc(O)cc2n2ccccc12	active: 8.2 µM	–
CN(c1ccc(OCC(=O)N2CCN(c3ccc(F)cc3)CC2)cc1)S(=O)(=O)c1cccs1	active: 25.9 µM	–
Cc1cc(-c2ccnc(-n3ncc(C(=O)NCC4CCCN(C)C4)c3C3CC3)n2)c(C)s1 (stereo not given)	–	inactive: -2.62%
CCOc1cc(N2CCOCC2)c(OCC)cc1NC(=O)CSc1nccc(C)n1	inconclusive [inhibitor, single point]	–
N#Cc1c(Cl)cccc1Oc1ccc(S(=O)(=O)Nc2ccccc2)cc1	inconclusive [inhibitor, single point]	–
COc1cccc2c1OCC(C(=O)O)C2 (stereo not given)	–	inactive: -0.528%
CC(=O)c1ccc(NC(=O)CCCN2C(=O)C(c3ccccc3)Oc3cccnc32)cc1 (stereo not given)	–	inactive: -26.3%

Structure (SMILES)	Potency	activity change, negative = growth inhibition
CC(C)CCn1c(N2CCCC2)nc2c1c(=O)n(C)c(=O)n2C	active: 20.6 µM	–
CC1=C(\C=C/C(C)=C/C=C\C(C)=C\C(=O)O)C(C)(C)CCC1	active: 11.6 µM	–
Cc1ccc(/C=N/NC(=O)c2cc(-c3ccc(C)o3)[nH]n2)cc1	active: 14.6 µM	–
Cc1cc(C)c2c(n1)sc1c(N3CCN(CCO)CC3)ncnc12	inconclusive [inhibitor, partial curve]	–
CC(=O)CCc1ccc(OCC(O)CNC2CCCc3ccccc32)cc1 (stereo not given)	inconclusive [inhibitor, single point]	–
CCc1ccc(NC(=O)c2ccc(CNS(=O)(=O)c3ccc4c(c3)C(C)(C)C(=O)N4C)cc2)cc1	active: 4.11 µM	–
COc1ccc(S(=O)(=O)N2CCC3(CC2)OCCN3S(=O)(=O)c2cccs2)cc1	inconclusive [inhibitor, partial curve]	–
COCC1CCN(Cc2cn[nH]c2-c2ccc(OC)c(F)c2)C1 (stereo not given)	–	inactive: 20.7%
COC(=O)c1[nH]c2cc(OC)c(OC)cc2c1NC(=O)c1cccc(OC)c1	active: 20.6 µM	–
CCOC(=O)N1CCN(CC(O)c2ccc3c(c2)CCN3)CC1 (stereo not given)	–	inactive: 0.429%
Cc1ccc(OC(=O)c2ccc3nc(C)sc3c2)cc1	–	inactive: -20.4%
CCc1ccc(/C=N/n2c(COc3ccccc3)n[nH]c2=S)cc1	–	inactive: -22.2%
CCCn1c(N2CCN(C(=O)Nc3ccccc3)CC2)nc2ccccc21	inconclusive [inhibitor, single point]	–
Nc1c(-c2ccc(Cl)cc2)cnn1C1CCS(=O)(=O)C1 (stereo not given)	inconclusive [inhibitor, single point]	–
Fc1ccc(Cn2ccc(-c3cnc(-c4ccccc4)s3)n2)cc1	inconclusive [inhibitor, single point]	–
N#Cc1ccc(-c2ccccc2)nc1SCCN1CCOCC1	inconclusive [inhibitor, single point]	–
CCOc1ccc(CN(C(=O)c2cc3ccccc3oc2=O)C2CC2)cc1	–	inconclusive: -35.9% [inhibitor]
COCOc1ccc(/C=C/C(=O)c2c(O)cc(OCOC)cc2OCOC)cc1	inconclusive [inhibitor, single point]	–
COc1ccc(NC(=S)Nc2cccc(C)n2)cc1	inconclusive [inhibitor, single point]	–
CCOc1ccc(CCNc2ncnc3onc(C)c23)cc1OCC	active: 2.06 µM	–
Cc1nc2ncnn2c(N2CCN(c3cccc(C(F)(F)F)c3)CC2)c1C	active: 20.6 µM	–
CCOC(=O)c1c(NC(=O)C(C)Oc2ccccc2F)sc(C(C)=O)c1C (stereo not given)	inconclusive [inhibitor, partial curve, poor fit]	–
COc1ccc2c(c1)C(C)(Cc1ccc(C(=O)c3ccccc3)cc1)C(=O)N2 (stereo not given)	inconclusive [inhibitor, single point]	–
CCOC(=O)c1cnc2c(OC)cccc2c1N1CCN(c2ccccc2F)CC1	active: 18.4 µM	–
CCOC(=O)Cc1c(C)nc2c(-c3ccc(OC)cc3)c(C)nn2c1C	active: 23.1 µM	–

From PubChem BioAssay AID686978 (National Center for Advancing Translational Sciences (NCATS), 2013)
